{
  "source": "paper PMC5653232",
  "about": "(Cell reports, 2017)",
  "test_system": "H3K9Cme3-NCP",
  "assay": "EMSA, CHD3 PHD1/2 with H3K9Cme3-NCP",
  "assay_type": "binding, human",
  "details": "5 nM NCP, 8.3 mM Tris-HCl pH 7.5, 62.5 mM NaCl, 5% native gel",
  "data": [
    {"molecule": "CHD3 PHD1/2: natively linked tandem PHD fingers of CHD3, construct PHD1/2 (373–508) (protein, left off: GST, end not stated, cleaved) GYETDHQDYCEVCQQGGEIILCDTCPRAYHLVCLDPELDRAPEGKWSCPHCEKEGVQWEAKEEEEEYEEEGEEEGEKEEEDDHMEYCRVCKDGGELLCCDACISSYHIHCLNPPLPDIPNGEWLCPRCTCPVLKGR", "values": [
      {"measurement": "concentration at which shift of the H3K9Cme3-NCP band is visible", "value": 3, "unit": "µM"}
    ]}
  ]
}
